Experimental findings from article PMC4336329 (PLoS ONE, 2015) are described below.

SMILES strings stand for the structures. In all, about 310,000 compounds went through this assay and about 2,200 (0.71%) showed an effect of 50% or more. Effects have a minus sign here. The list shows a part of the results.

The target of this assay is human ether-à-go-go-related gene (hERG) potassium channel (human, UniProt Q12809). The experiment in a line: primary screen, population patch clamp on CHO cells stably expressing hERG.
Sequence of human ether-à-go-go-related gene (hERG) potassium channel (Q12809 whole entry, looked up): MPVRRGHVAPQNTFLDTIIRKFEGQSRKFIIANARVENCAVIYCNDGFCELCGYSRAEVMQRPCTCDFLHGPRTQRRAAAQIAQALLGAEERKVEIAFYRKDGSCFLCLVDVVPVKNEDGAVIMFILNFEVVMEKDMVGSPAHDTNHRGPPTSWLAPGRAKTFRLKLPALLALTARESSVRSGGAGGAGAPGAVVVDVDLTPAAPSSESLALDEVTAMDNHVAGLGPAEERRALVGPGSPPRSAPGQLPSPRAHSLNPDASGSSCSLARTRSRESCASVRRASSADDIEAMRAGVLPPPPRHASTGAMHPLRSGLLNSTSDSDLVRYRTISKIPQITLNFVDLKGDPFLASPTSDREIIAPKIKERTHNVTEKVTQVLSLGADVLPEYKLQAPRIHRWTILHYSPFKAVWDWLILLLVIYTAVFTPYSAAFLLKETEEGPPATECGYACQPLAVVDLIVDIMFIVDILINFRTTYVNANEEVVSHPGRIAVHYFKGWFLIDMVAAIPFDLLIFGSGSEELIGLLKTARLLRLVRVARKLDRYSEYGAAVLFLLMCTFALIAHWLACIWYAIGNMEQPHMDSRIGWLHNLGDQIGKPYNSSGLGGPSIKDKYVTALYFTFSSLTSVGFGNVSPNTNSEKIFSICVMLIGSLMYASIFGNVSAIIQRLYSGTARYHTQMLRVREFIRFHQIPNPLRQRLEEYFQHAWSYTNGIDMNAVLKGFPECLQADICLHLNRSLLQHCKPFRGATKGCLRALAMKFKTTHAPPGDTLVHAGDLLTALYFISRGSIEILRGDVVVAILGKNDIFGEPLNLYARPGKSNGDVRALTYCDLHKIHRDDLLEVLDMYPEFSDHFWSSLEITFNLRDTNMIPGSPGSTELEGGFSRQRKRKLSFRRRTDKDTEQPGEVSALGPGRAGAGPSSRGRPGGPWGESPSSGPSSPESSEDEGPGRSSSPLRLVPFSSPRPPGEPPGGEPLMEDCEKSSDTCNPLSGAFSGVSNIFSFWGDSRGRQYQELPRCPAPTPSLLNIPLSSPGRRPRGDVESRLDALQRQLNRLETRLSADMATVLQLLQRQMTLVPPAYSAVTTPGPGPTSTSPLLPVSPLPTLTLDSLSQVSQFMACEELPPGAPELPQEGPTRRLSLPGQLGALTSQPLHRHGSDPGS
For `Cc1ccc(S(=O)(=O)N2CCC(C(=O)NNC(=O)C3CC3)CC2)cc1Cl`, the “hERG current change (%, negative = inhibition) at 1uM” value came to 11.1%.

`C/C(N)=C(/C#N)C(=O)CSc1nc2ccccc2n1CC(C)C`: the “hERG current change (%, negative = inhibition) at 1uM” value amounted to 10.1%.

In the case of `O=C(CSc1nnc(SCc2ccccc2Cl)s1)N/N=C/c1ccc(C(=O)O)cc1`, the “hERG current change (%, negative = inhibition) at 1uM” value was 10.7%.

Take `CCOC(=O)N1CCC(NC(=O)C2CCN(c3nc(-c4ccc(OC)cc4)no3)CC2)CC1`: the “hERG current change (%, negative = inhibition) at 1uM” value stood at 11.8%.

With `CC(C)COP(=O)(OCC(C)C)C(Nc1ccccc1)c1ccc(F)cc1` (centres unmarked), the “hERG current change (%, negative = inhibition) at 1uM” value is 11.5%.

With `Oc1ccccc1CNc1cnc2ccccc2c1`, the “hERG current change (%, negative = inhibition) at 1uM” value turned out to be 3.11%.

For the molecule `COc1ccc(C(=O)C2CCCN(Cc3cn[nH]c3-c3ccccc3)C2)cc1OC` (centres unmarked), the “hERG current change (%, negative = inhibition) at 1uM” value is -75.4%.

In the case of `Cl.Oc1ccc(C2=CSC3=NCCN23)cc1O`, the “hERG current change (%, negative = inhibition) at 1uM” value came out at 3.61%.

`CCOC(=O)C1(CCc2ccccc2)CCN(Cc2ccc(C(=O)OC)cc2)CC1`: the “hERG current change (%, negative = inhibition) at 1uM” value is -86.1%.

Take `COc1cccc(CNC(=S)NC2CCCC2)c1`: the “hERG current change (%, negative = inhibition) at 1uM” value worked out at 4.47%.

Take `Cl.O=C(NCCN1CCCC1)c1ccc(Br)cc1`: the “hERG current change (%, negative = inhibition) at 1uM” value came out at 3.38%.

For `Nc1ccc(C(=O)Nc2ccccc2C(=O)O)cc1`, the “hERG current change (%, negative = inhibition) at 1uM” value is 10.2%.

As to `Cc1cc(C)cc(OCC(=O)OCC(=O)c2cc(C)n(C3CC3)c2C)c1`, the “hERG current change (%, negative = inhibition) at 1uM” value is given as -2.2%.

For `CC1=CC(c2ccc(Cl)cc2)n2nc(NC(=O)CCCC(=O)O)nc2N1` (centres unmarked), the “hERG current change (%, negative = inhibition) at 1uM” value turned out to be 15.6%.

For `O=C(O)CCCC(=O)Nc1ccc(C(=O)NCc2cccnc2)cc1`, the “hERG current change (%, negative = inhibition) at 1uM” value worked out at 11%.

For the molecule `Cc1ccc(N2C(=O)c3cccc4c(C(=O)O)ccc(c34)C2=O)cc1`, the “hERG current change (%, negative = inhibition) at 1uM” value is reported as 12.6%.

Regarding `N/C(=N\OC(=O)N1CCOCC1)c1ccc(Br)cc1`, the “hERG current change (%, negative = inhibition) at 1uM” value is 9.03%.

For the molecule `CCOc1ccccc1NC(=O)c1cccc(NC(=O)c2ccco2)c1`, the “hERG current change (%, negative = inhibition) at 1uM” value is reported as -1.6%.

Take `CCCCC(=O)NC1(C(F)(F)F)C(=O)Nc2c1c(=O)[nH]c(=O)n2Cc1ccco1` (centres unmarked): the “hERG current change (%, negative = inhibition) at 1uM” value amounted to 7.24%.

Take `Cc1cccc(NC2=NC(C)(C)N=C(N)N2)c1`: the “hERG current change (%, negative = inhibition) at 1uM” value was found to be 10.5%.

For the molecule `CC(C)OC(=O)CSc1nc(N)c(C#N)cc1C#N`, the “hERG current change (%, negative = inhibition) at 1uM” value worked out at 5.88%.

Regarding `CCCCc1cc(=O)oc2cc(C)cc(OCC(=O)NC(Cc3ccc(Cl)cc3)C(=O)O)c12` (centres unmarked), the “hERG current change (%, negative = inhibition) at 1uM” value came to 13.6%.

On to `CCn1nc(CC(=O)Nc2ccc(-n3cnnn3)c(C)c2)c2ccccc2c1=O`, for which the “hERG current change (%, negative = inhibition) at 1uM” value is given as -3.91%.

Consider `Cc1nc2ncnn2c(C)c1CCC(=O)Nc1ccc(S(=O)(=O)N2CCCCCC2)cc1`, for which the “hERG current change (%, negative = inhibition) at 1uM” value was found to be 3.76%.

With `COc1ccc(C2=NN(C(=O)CN3CCCC3)C(c3ccc(OC)cc3)C2)cc1` (centres unmarked), the “hERG current change (%, negative = inhibition) at 1uM” value was 0.308%.

As for `CC1=NNC(=O)/C1=C\c1cn(-c2ccccc2)nc1-c1ccccc1`, the “hERG current change (%, negative = inhibition) at 1uM” value stood at 12%.

Turning to `Cn1c2ccccc2c2nnc(SCC(N)=O)nc21`, the “hERG current change (%, negative = inhibition) at 1uM” value was 15.4%.

For the molecule `CC(=O)C1=C(C)NC(=O)NC1c1ccc2c(c1)OCO2` (centres unmarked), the “hERG current change (%, negative = inhibition) at 1uM” value was determined as 11.9%.

For the molecule `Cc1c2c(nc3c(C(=O)NC4CCCCC4C)cnn13)CCCC2` (centres unmarked), the “hERG current change (%, negative = inhibition) at 1uM” value is recorded as -1.98%.

`CCc1ccc(NC(=O)C(=O)NCC2CCCN2S(=O)(=O)c2ccccc2)cc1` (centres unmarked): the “hERG current change (%, negative = inhibition) at 1uM” value worked out at 9.87%.

In the case of `Cc1ccc(C)c(OCCC(=O)OCC(=O)NC2CC2)c1`, the “hERG current change (%, negative = inhibition) at 1uM” value came to 14.6%.

As to `CCn1c(O)c(C(=O)CC2NCCc3ccccc32)c(=O)n(CC)c1=S` (centres unmarked), the “hERG current change (%, negative = inhibition) at 1uM” value is 16.2%.

For `O=C(/C=C/c1ccco1)Oc1cc(Br)cc(/C=N/NC(=O)c2ccccc2O)c1`, the “hERG current change (%, negative = inhibition) at 1uM” value came to 9.43%.

For the molecule `COc1ccc2[nH]c(=O)c(C(c3nnnn3C3CCCC3)N(C)C3CCCCC3)cc2c1` (centres unmarked), the “hERG current change (%, negative = inhibition) at 1uM” value is given as -3.8%.

For the molecule `CCOC(=O)c1ccc(C(=O)OCC)nc1`, the “hERG current change (%, negative = inhibition) at 1uM” value is recorded as 16.8%.

With `CC(=O)c1cccc(-n2nnnc2SCC(=O)Nc2ccccc2N2CCCCC2)c1`, the “hERG current change (%, negative = inhibition) at 1uM” value worked out at 5.69%.

For `Cc1ccc2c(c1)NCCO2`, the “hERG current change (%, negative = inhibition) at 1uM” value amounted to 9.1%.

On to `CCOC(=O)C1(CCc2ccccc2)CCN(Cc2ccc(NC(C)=O)cc2)CC1`, for which the “hERG current change (%, negative = inhibition) at 1uM” value is listed as -72.5%.

As for `CC12CN3CC(C)(CN(C1)C31CCOCC1)C2=O`, the “hERG current change (%, negative = inhibition) at 1uM” value was 11.1%.

As for `Oc1c(Br)cc(/C=N/Nc2ccc(Cl)nn2)cc1Br`, the “hERG current change (%, negative = inhibition) at 1uM” value is recorded as 3.08%.

On to `CCOc1ccc2oc(-c3ccccc3)c(C(=O)N(C)C)c2c1`, for which the “hERG current change (%, negative = inhibition) at 1uM” value came to 7.27%.

In the case of `Cc1ccc(C(=O)CCNc2ccccc2)o1`, the “hERG current change (%, negative = inhibition) at 1uM” value was 7.76%.

As to `COc1ccc(/C=C2\SC(=S)N(CCC(=O)Nc3ccccn3)C2=O)cc1OC`, the “hERG current change (%, negative = inhibition) at 1uM” value came out at 21.9%.

Turning to `COc1ccccc1N1CCN(CCC(=O)Nc2ccc3c(c2)OCO3)CC1`, the “hERG current change (%, negative = inhibition) at 1uM” value is listed as 7.26%.
